Hit rate of the full screen: of about 71,000 compounds, about 180 (0.25%) were called active. The inconclusive results got no clear call from the source; some entries with a clear call stand among them for comparison. Calls come from the whole dose curve; as a rule, active = well fitted curve in the direction sought with a large enough effect; inconclusive = small, poorly fitted or top-dose-only effect; inactive = flat fitted curve, though single readings scatter. Potencies of inconclusive entries are doubtful fits and often do not repeat. Where a structure was tested more than once in an assay, its records may differ in their call.
The compounds below were run on DNA polymerase III holoenzyme (E. coli) (assay: qHTS Assay for Inhibitors of DNA Polymerase III Holoenzyme System). Conditions: reconstituted DNA polymerase III holoenzyme replication, biochemical; series mostly up to 57.1 µM; activity change, negative = inhibition: at the top concentration.
Method in brief: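 Reconstituted *E. coli* holoenzyme (0.35 nM Pol III, 1 nM beta, 154 nM SSB, 2 nM primase) was preincubated with compound for 15 min at RT. Synthesis on 1.4 nM ssM13Gori ran 35 min, then was stopped with PicoGreen/EDTA and read as dsDNA fluorescence.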
% is set by controls: 0 for no effect and ±100 for the full control effect; potency is the fitted concentration of half-maximal effect.

Compound	activity change, negative = inhibition	Potency
CC(Oc1ccccc1Br)C(=O)N1CCc2ccccc21 (stereo not drawn)	inactive: 4.3%	
COc1ccc(Cn2c3nc4ccccc4nc3c3c(=O)n(Cc4ccco4)c(C)nc32)cc1		inconclusive: 39.8 µM
CCCCCCNc1c(C(=O)OCC)c(=O)[nH]c2ccccc12		inconclusive: 39.8 µM
CCC(=O)Nc1cccc(NC(=O)CSc2nnnn2Cc2ccccc2)c1		inconclusive: 6.31 µM
O=C(NCN1CCc2ccccc2C1)c1cnccn1		inconclusive: 6.31 µM
O=C(COc1ccccc1O)N1CCN(C(=O)c2ccco2)CC1		inconclusive: 5.01 µM
C/C(=C\c1ccco1)C1Nc2cccc3cccc(c23)N1		active: 3.16 µM
CC(CCc1ccccc1)NC(=O)CSc1nnnn1C (stereo not drawn)		inconclusive: 6.31 µM
C[n+]1cc2c3c(ccc2c2ccc4cc5c(cc4c21)OCO5)OCO3		active: 31.6 µM
C/C=C/Cn1c(SCc2ccc(Cl)cc2)nc2c1c(=O)[nH]c(=O)n2C		inconclusive: 6.31 µM
CCC1(CC)NC(=O)N(CC(=O)Nc2sc3c(c2C(N)=O)CCC3)C1=O		active: 20 µM
O=C(O)CCc1c2ccc(=O)c(O)c-2oc2c(O)c(O)ccc12		active: 0.0794 µM
Cn1c(N)c(C(=O)COC(=O)C2(c3ccccc3F)CCCC2)c(=O)n(C)c1=O		inconclusive: 6.31 µM
Cn1c(NCc2cccs2)nc2ccccc21	inactive: -3%	
N[C@@H](Cc1c[nH]c2ccc(O)cc12)C(=O)O		inactive
COc1ccc(CC(=O)c2ccccc2C(=O)O)cc1		inconclusive: 6.31 µM
COc1ccccc1CNC(=O)CSc1nc(-c2ccccc2)cn1N		inconclusive: 6.31 µM
Cc1ccc(-n2c(SCn3nnc4ccccc4c3=O)nnc2-c2cccnc2)c(C)c1	inactive: -2.2%	
CC(=O)N1CCCc2cc(S(=O)(=O)CCC(=O)N3CCN(c4cccc(C)c4)C(C)C3)ccc21 (stereo not drawn)		active: 15.8 µM
Cc1[nH]c2ccccc2c1C(=O)CN1CCSCC1	inactive: -1.7%	
O=C(O)/C(=C/c1c(C(=O)O)[nH]c2cc(Cl)cc(Cl)c12)c1ccccc1		active: 31.6 µM
O=C(COc1ccccc1)Nc1ccccc1C(=O)NCc1ccco1		inconclusive: 6.31 µM
Cc1ccc(N2CCCCn3c2nc2c3c(=O)[nH]c(=O)n2C)cc1		inconclusive: 5.01 µM
Cc1nc2cncnc2n(C2CC2)c1=O	inactive: -9.1%	
CC1CN(CCC(=O)Nc2ccc3c(c2)OCO3)CC(C)O1 (stereo not drawn)		inconclusive: 6.31 µM
N.N.N.N.N.N.N.N.N.N.N.N.N.N.O.O.[Ru].[Ru].[Ru]		active: 31.6 µM
Cc1ccc2c(c1C)NC(C(=O)O)C1CC=CC21 (stereo not drawn)		active: 25.1 µM

Compound	activity change, negative = inhibition	Potency
CCOC(=O)N1CCC(NCCNC(=O)c2ccccc2Cl)CC1		inconclusive: 6.31 µM
O=C(CCc1nc2ccccc2c(=O)[nH]1)OCC(=O)N1CCN(S(=O)(=O)c2ccccc2)CC1		inconclusive: 6.31 µM
Cc1cc2nc(-c3ccc(SCC(=O)N4CCOCC4)nc3)[nH]c2cc1C		inconclusive: 31.6 µM
CCn1nc(C(=O)OCC(=O)c2ccc3c(c2)OCCO3)c2ccccc2c1=O		inconclusive: 5.01 µM
Cc1cc(NC(=O)CCCC(=O)NCc2cccs2)no1		inconclusive: 5.01 µM
COC(=O)Nc1ccc(S(=O)(=O)N2c3ccccc3CCC2C)cc1 (stereo not drawn)		inconclusive: 5.01 µM
O=C(NCc1ccco1)C(Cc1ccccc1)N1C(=O)C2C3C=CC(C3)C2C1=O (stereo not drawn)		inconclusive: 6.31 µM
Cc1ccc(C(=O)C2CCN(CC(=O)Nc3ccc(N(C)C)cc3)CC2)cc1	inactive: -3.2%	
C=C1C(CCl)(CCl)C2(Cl)C(Cl)C(Cl)C1(Cl)C2(Cl)Cl (stereo not drawn)		inconclusive: 39.8 µM
C[C@@](N)(Cc1ccc(O)c(O)c1)C(=O)O		active: 12.6 µM
N#Cc1c(-c2ccco2)cc(-c2cccnc2)nc1N		active: 31.6 µM
COc1ccc(NC(=O)CSc2nc(NS(=O)(=O)c3ccccc3)cc(=O)[nH]2)cc1		inconclusive: 39.8 µM
Cc1ccc(-c2noc(CCC(=O)NCCN3CCc4ccccc4C3)n2)cc1	inactive: -5.2%	
Cc1ccsc1C(=O)OCC(=O)c1cc2ccccc2o1		inconclusive: 6.31 µM
Cc1ccc(CSc2nnc(-c3cccs3)n2C)cc1	inactive: -5.2%	
Cc1ccccc1S(=O)(=O)Cc1ccc(C(=O)N2CCN(C3CCCCC3)CC2)o1	inactive: -5.2%	
CC(C)C(c1nnnn1C(C)(C)C)N1CCN(c2cccc(Cl)c2)CC1 (stereo not drawn)		inconclusive: 5.01 µM
Cc1ccc2nc(NC(=O)c3cccs3)sc2c1	inactive: 1.3%	
Cc1ccc(S(=O)(=O)N2CCN(c3ncnc4c3cnn4-c3ccccc3)CC2)cc1		inconclusive: 3.98 µM
CCn1nc(C(=O)OC2CCOC2=O)c2ccccc2c1=O (stereo not drawn)		inconclusive: 6.31 µM
Cc1ccc(Cn2c(SCC(=O)Nc3cc(C)on3)nc3ccccc3c2=O)cc1		inconclusive: 6.31 µM
Cc1csc(SCC(=O)N2CCN(S(=O)(=O)c3ccc(Cl)cc3)CC2)n1		inconclusive: 6.31 µM
Cc1ccc(-n2c(=O)[nH]c3c(C(N)=O)nc(-c4ccc(C)o4)nc32)cc1		inconclusive: 31.6 µM
CC1(C)CCCN(C(=O)c2coc(=O)c(Br)c2)C1		inconclusive: 25.1 µM
CC(=O)c1cccc(NC(=O)Cc2cccs2)c1	inactive: 10.4% [at 11.4 µM]	
O=C(CSc1nnnn1Cc1ccccc1)c1ccccc1		inconclusive: 6.31 µM
